According to PubChem BioAssay AID938 (National Center for Advancing Translational Sciences (NCATS), 2007):
Screen size: about 73,000 compounds; about 1,800 (2.5%) were called active. The inconclusive results got no clear call from the source; some entries with a clear call stand among them for comparison. The call rests on the fitted dose curve; in most records, active means well fitted activation curve with a large enough effect; inconclusive means small, poorly fitted or top-dose-only effect; inactive means no such curve, though single readings can be large or run the other way. No potency is given beside an inconclusive call; the fits are too rough.

Assay: qHTS Assay for Agonists of the Thyroid Stimulating Hormone Receptor: Activators of Intracellular cAMP Concentrations in Parental HEK 293; further: nearly all actives have a fitted effect of over 55% in size; on activation: % of control where 0% means no effect
Conditions: parental HEK293 CNG cAMP sensor, membrane potential fluorescence; activation: at 57.1 µM (top of the series) unless noted
Summary of the method: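 Parental HEK 293 cells stably expressing a cAMP-gated CNG channel were loaded with membrane potential dye containing 100 uM RO 20-1724 for 60 min. Compound added for 30 min; depolarization read as fluorescence intensity at 590 nm.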
Potency means the concentration at half of the fitted maximal effect; tags describe the fitted curve by direction and shape.

Which Potency does the source give for `COc1ccccc1-c1cc(C(=O)Nc2c(F)cc(F)cc2Br)no1` here?
The Potency was inconclusive [activator, single point].

Which Potency does the source give for `O=C(CSc1nnc(-c2ccco2)n1CC1CCCO1)c1ccccc1` (stereo unspecified) here?
Its Potency is “inactive”.

For `Cc1cc(N2CCCc3ccccc32)n2ncnc2n1`, which Potency is on record?
The Potency was “inactive”.

Which activation does the source give for `Cc1ccc(CN2CCN(Cc3ccc(C)o3)[C@@H](C)C2)o1` here?
Its activation is inactive: -0.796% [at 11.4 µM].

For `O=C(COC(=O)c1ccccc1NC(=O)c1ccco1)Nc1ccc2c(c1)OCO2`, which Potency is on record?
Its Potency is inconclusive [activator, single point].

Which Potency does the source give for `CC(=O)NC(Cc1ccccc1C)C(=O)NC1CCN(c2c3c(nc4ncnn24)CCC3)CC1` (stereo unspecified) here?
Its Potency is “inactive”.

Which Potency does the source give for `CCOc1ccccc1-n1c(SCC(=O)N(C(C)C)C(C)C)nnc1-c1cccnc1` here?
Its Potency is inconclusive [activator, partial curve].

For `c1ccc(-n2c(SCC3CCCCO3)nnc2-c2cccs2)cc1` (stereo unspecified), which Potency is on record?
The Potency was inconclusive [activator, single point].

Which Potency does the source give for `O=C(Nc1cc(C(F)(F)F)ccc1N1CCCC1)c1ccc2c(c1)OCO2` here?
The Potency was inconclusive [activator, partial curve].

For `CCN1c2ccccc2-c2nc3ccccc3n2C1c1ccccn1` (stereo unspecified), which Potency is on record?
The Potency was active: 15.8 µM.

For `CC1CCCCC1NC(=O)Cn1c(CN2CCCCC2)nc2ccccc2c1=O` (stereo unspecified), which Potency is on record?
The Potency was inconclusive [activator, full curve, poor fit].

Which Potency does the source give for `Cc1cc(NC(=O)c2noc3c2CCCCC3)nn1Cc1ccc(Cl)cc1` here?
Its Potency is inconclusive [activator, partial curve].

With `N#CCCN(CCC#N)c1nncs1` as the compound, how does the Potency read?
Its Potency is inconclusive [activator, single point].

For `CC(C)CC(c1nnnn1C1CCCC1)N1CCN(c2ccccc2F)CC1` (stereo unspecified), which Potency is on record?
The Potency was inconclusive [activator, partial curve].

With `O=C(NCCN1CCCC1)C1CCN(S(=O)(=O)N2CCC3(CC2)OCCO3)CC1` as the compound, how does the Potency read?
Its Potency is inconclusive [activator, partial curve].

With `CCOC(=O)Cc1nnc(NC(=O)c2ccccc2OC)s1` as the compound, how does the Potency read?
The Potency was inconclusive [activator, single point].

With `O=C(CN(c1ccc(Cl)c(C(F)(F)F)c1)S(=O)(=O)c1ccccc1)N1CCOCC1` as the compound, how does the Potency read?
The Potency was inconclusive [activator, single point].

With `c1c2c(cc3sc(N4CCOCC4)nc13)OCO2` as the compound, how does the Potency read?
Its Potency is “inactive”.

Which Potency does the source give for `COCC(=O)n1nc(-c2ccccc2)nc1NCc1ccc(F)cc1` here?
The Potency was “inactive”.

With `CCN1CCCC1CNC(=O)c1ccc(-n2c(=O)c(=O)[nH]c3ccccc32)cc1` (stereo unspecified) as the compound, how does the Potency read?
Its Potency is inconclusive [activator, single point].

Which Potency does the source give for `O=c1cnc2cnc(Oc3ccccc3)nc2n1Cc1ccc(F)cc1` here?
Its Potency is inconclusive [activator, partial curve].

With `Cc1ccccc1-c1cc(NCCN2CCOCC2)ncn1` as the compound, how does the Potency read?
Its Potency is inconclusive [activator, partial curve].

Which Potency does the source give for `CC(C)C(c1nnnn1Cc1ccc2c(c1)OCO2)N1CCN(c2ccccc2)CC1` (stereo unspecified) here?
Its Potency is inconclusive [activator, partial curve].

Which Potency does the source give for `O=C(O)CCC(=O)N1CCC[C@H]1C(=O)O` here?
The Potency was inconclusive [activator, full curve].

Which Potency does the source give for `CC(=O)c1cccc(NC(=O)NC(C)c2ccncc2)c1` (stereo unspecified) here?
Its Potency is inconclusive [activator, single point].

Which Potency does the source give for `Cc1cc(C)c2cc(CN(Cc3nnnn3C3CCCCC3)CC3CCCO3)c(=O)[nH]c2c1` (stereo unspecified) here?
The Potency was inconclusive [activator, partial curve].

For `O=C(Nc1cnn(Cc2ccc(F)cc2)c1)c1cc(-c2ccc(Br)cc2)on1`, which Potency is on record?
The Potency was “inactive”.

Which Potency does the source give for `CC(C)Nc1nnc(SCC(=O)Nc2ccc(F)cc2)s1` here?
Its Potency is inconclusive [activator, single point].

Which Potency does the source give for `CCN(CC)S(=O)(=O)c1ccc(NC(=O)c2c(-c3ccccc3)noc2C)cc1` here?
The Potency was inconclusive [activator, single point].

For `COc1ccc(OCC(=O)Nc2ccccc2OC)cc1`, which Potency is on record?
The Potency was inconclusive [activator, partial curve, poor fit].

With `Cc1cc(NC(=O)c2cc(-c3ccccn3)nc3ccccc23)no1` as the compound, how does the Potency read?
Its Potency is “inactive”.

Which Potency does the source give for `CCOC(=O)c1c(N2C(=O)C3C4C=CC(O4)C3C2=O)sc2c1CCCC2` (stereo unspecified) here?
The Potency was inconclusive [activator, single point].

With `CCCn1nc2ccccc2c1P(=N)(N1CCOCC1)N1CCOCC1` as the compound, how does the Potency read?
The Potency was inconclusive [activator, single point].

For `CCOC(=O)Cc1csc(NC(=O)CSc2ncnc3c2cnn3-c2ccccc2Cl)n1`, which Potency is on record?
The Potency was inconclusive [activator, full curve].

For `COc1ccc(-c2nnc(SCc3ccccc3F)o2)cc1OC`, which Potency is on record?
Its Potency is inconclusive [activator, single point].

For `CN(CCc1ccc(Cl)c(Cl)c1)CCN1CCCCCC1`, which Potency is on record?
Its Potency is inconclusive [activator, partial curve].

With `CCOc1ccc(-c2cc(CCCC(=O)Nc3cc(OC)ccc3OC)no2)cc1` as the compound, how does the Potency read?
Its Potency is inconclusive [activator, partial curve].

With `COc1ccc2oc(-c3ccccc3)c(OC)c(=O)c2c1` as the compound, how does the Potency read?
The Potency was active: 39.8 µM.

Which Potency does the source give for `O=C(CSc1nnc(-c2ccccn2)n1Cc1ccccc1)NC1CCCC1` here?
The Potency was inconclusive [activator, single point].

For `Nc1ccc(N=Nc2c(S(=O)(=O)O)cc3ccccc3c2S(=O)(=O)O)cc1`, which activation is on record?
Its activation is inactive: 2.78% [at 11.4 µM].

Which Potency does the source give for `OC[C@H]1O[C@@H]2O[C@H]3[C@H](O)[C@@H](O)[C@@H](O[C@H]4[C@H](O)[C@@H](O)[C@@H](O[C@H]5[C@H](O)[C@@H](O)[C@@H](O[C@H]6[C@H](O)[C@@H](O)[C@@H](O[C@H]7[C@H](O)[C@@H](O)[C@@H](O[C@H]1[C@H](O)[C@H]2O)O[C@@H]7CO)O[C@@H]6CO)O[C@@H]5CO)O[C@@H]4CO)O[C@@H]3CO` here?
The Potency was inconclusive [activator, partial curve, poor fit].
